In one assay the target is T1, human 4IgB7H3 (Homo sapiens, UniProt Q5ZPR3).
T1 construct: Uniprot ID: Q5ZPR3, amino acids 29-461; 6xHis (C); made in house; host or cells: Expi293F
T1 sequence (Q5ZPR3 29-461): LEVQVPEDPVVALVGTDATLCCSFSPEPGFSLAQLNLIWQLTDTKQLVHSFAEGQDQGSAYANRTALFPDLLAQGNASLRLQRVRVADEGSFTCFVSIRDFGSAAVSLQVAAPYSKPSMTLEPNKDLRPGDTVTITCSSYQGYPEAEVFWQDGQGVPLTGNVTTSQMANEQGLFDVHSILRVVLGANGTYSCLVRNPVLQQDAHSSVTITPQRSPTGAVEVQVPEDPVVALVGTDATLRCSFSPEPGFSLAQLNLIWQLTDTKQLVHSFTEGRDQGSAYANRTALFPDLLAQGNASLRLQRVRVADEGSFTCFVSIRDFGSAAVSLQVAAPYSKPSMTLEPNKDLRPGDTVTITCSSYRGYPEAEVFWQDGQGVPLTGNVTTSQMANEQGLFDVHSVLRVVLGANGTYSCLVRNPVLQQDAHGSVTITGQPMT
As to the kind of experiment: SPR binding affinity for human 4IgB7H3 (Biacore 8K). Particulars: analyte human 4IgB7H3. The protocol: (§1) The affinity of antibodies for human 4IgB7H3 was determined using surface plasmon resonance (SPR). The affinity of antibodies for human 4IgB7H3 was determined by Biacore 8K. An activator was prepared by mixing 400 mM EDC and 100 mM NHS (GE) immediately prior to injection into the channel. The CM5 sensor chip was activated for 420 seconds with the activator. Goat anti-human Fc IgG (30 μg/mL in 10 mM NaAc, pH 4.5) was then injected into the channel at a flow rate of 10 μL/min for 420 seconds. The chip was deactivated by 1 M ethanolamine hydrochloric acid. The antibodies diluted in running buffer (1×HBS-EP+) were injected into the channel at a flow rate of 10 μL/min for 30 seconds. Seven concentrations (100 nM, 50 nM, 25 nM, 12.5 nM, 6.25 nM, 2.125 nM, and 1.563 nM) of analyte human 4IgB7H3 were injected sequentially into the channel at a flow rate of 30 μL/min for an association phase of 180 seconds, followed by dissociation of 3600 seconds. Glycine (10 mM, pH 1.5) was injected as regeneration buffer after the dissociation phase.
The sensorgrams for the reference channel and the buffer channel were subtracted from the test sensorgrams. The experimental data were fitted with a 1:1 binding model. The molecular weight of the human 4IgB7H3 used in the calculation was 47.8 kDa.
(§2) The experimental data were fitted by a 1:1 binding model bundled with the Biacore 8K evaluation software.

Another assay has as its target T2, human 2IgB7H3 (Homo sapiens, UniProt Q5ZPR3).
T2 construct: His tag; purchased ACRO (ACROBiosystems) B73-H52E2
T2 sequence (Q5ZPR3 29-316 isoform Q5ZPR3-2 limits assumed): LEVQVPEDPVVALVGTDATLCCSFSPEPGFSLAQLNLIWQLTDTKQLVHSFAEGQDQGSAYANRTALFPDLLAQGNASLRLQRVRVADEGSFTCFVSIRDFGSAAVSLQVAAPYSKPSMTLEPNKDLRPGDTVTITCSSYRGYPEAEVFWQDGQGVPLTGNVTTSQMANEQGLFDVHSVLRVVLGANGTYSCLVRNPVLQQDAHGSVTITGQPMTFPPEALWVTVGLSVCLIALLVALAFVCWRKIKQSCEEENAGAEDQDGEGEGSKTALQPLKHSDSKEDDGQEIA
As to the kind of experiment: SPR binding affinity for human 2IgB7H3 (Biacore 8K). Particulars: analyte human 2IgB7H3. Here is the method:
The affinity of antibodies for human 2IgB7H3 was determined using surface plasmon resonance (SPR). The affinity of antibodies for human 2IgB7H3 was determined by Biacore 8K. An activator was prepared by mixing 400 mM EDC and 100 mM NHS (GE) immediately prior to injection into the channel. The CM5 sensor chip was activated for 420 seconds with the activator. Goat anti-human Fc IgG (30 μg/mL in 10 mM NaAc, pH 4.5) was then injected into the channel at a flow rate of 10 μL/min for 420 seconds. The chip was deactivated by 1 M ethanolamine hydrochloric acid. The antibodies diluted in running buffer (1×HBS-EP+) were injected into the channel at a flow rate of 10 μL/min for 30 seconds. Seven concentrations (500 nM, 250 nM, 125 nM, 62.5 nM, 31.25 nM, 15.625 nM, and 7.813 nM) of analyte human 2IgB7H3 were injected sequentially into the channel at a flow rate of 30 μL/min for an association phase of 120 seconds, followed by dissociation of 300 seconds. Glycine (10 mM, pH 1.5) was injected as regeneration buffer after the dissociation phase.
The sensorgrams for the reference channel and the buffer channel were subtracted from the test sensorgrams. The experimental data were fitted with a 1:1 binding model. The molecular weight of the human 2IgB7H3 used in the calculation was 25.2 kDa.
as §2

The test system of the next assay is cynomolgus monkey B7H3. As to the kind of experiment: SPR binding affinity for cynomolgus monkey B7H3 (Biacore 8K). The settings on record: analyte cynomolgus monkey B7H3. Here is the method: as §1, with “cynomolgus monkey B7H3” for “human 4IgB7H3”, “Fe” for “Fc”, “Seven concentrations (100 nM, 50 nM, 25 nM, 12.5 nM, 6.25 nM, 2.125 nM, and 1.563 nM) of analyte human 4IgB7H3 were injected sequentially into the channel at a flow rate of 30 μL/min for an association phase of 180 seconds, followed by dissociation of 3600 seconds.” left out
The sensorgrams for the reference channel and the buffer channel were subtracted from the test sensorgrams. The experimental data for 6 analyte concentrations (50 nM, 25 nM, 12.5 nM, 6.25 nM, 3.125 nM, and 1.563 nM) were fitted with a 1:1 binding model. The molecular weight of the cynomolgus monkey B7H3 used in the calculation was 49 kDa.
as §2
Background: Surface plasmon resonance follows binding to a sensor surface in real time, without labels.

B1: W301088-1.145.16-z3-p1-uIgG1KV320: humanized anti-B7H3 IgG1 antibody, heavy chain SEQ ID NO: 12, light chain SEQ ID NO: 13 (antibody)
heavy: QVQLQESGPGLVKPSQTLSLTCTVTDYSITGDYAWNWIRQHPGKGLEWIGYISYSGSTSYNPSLQSRVTISRDTSKNQFSLKLSSVTAADTAVYFCARSLGRRWYFVVWGQGTTVTVSSASTKGPSVFPLAPSSKSTSGGTAALGCLVKDYFPEPVTVSWNSGALTSGVHTFPAVLQSSGLYSLSSVVTVPSSSLGTQTYICNVNHKPSNTKVDKRV[not shown - human IgG1 Fc with changes]
light: DIVMTQSPDSLAVSLGERATINCKSSQSLLQSSNQKNYLAWYQQKPGQPPKLLIYFASTRESGVPDRFSGSGSGTDFTLTISSLQAEDVAVYYCQQHYSAPWTFGGGTKVEIKRTVAAPSVFIFPPSDEQLKSGTASVVCLLNNFYPREAKVQWKVDNALQSGNSQESVTEQDSKDSTYSLSSTLTLSKADYEKHKVYACEVTHQGLSSPVTKSFNRGEC
In the case of B1, the ka in the assay with human 4IgB7H3 was determined as 657000 M⁻¹ s⁻¹; with human 2IgB7H3, 303000 M⁻¹ s⁻¹; in the assay on cynomolgus monkey B7H3, 527000 M⁻¹ s⁻¹. Besides, the kd came to 4.65e-05 s⁻¹ in the assay with human 4IgB7H3, 0.0141 s⁻¹ with human 2IgB7H3 and 3.02e-05 s⁻¹ on cynomolgus monkey B7H3.
